Source: PubChem BioAssay AID1159614 (National Center for Advancing Translational Sciences (NCATS), 2016)
Hit rate of the full screen: of about 45,000 compounds, about 65 (0.1%) were called active. Calls follow the shape of the dose curve; as a rule, active = well fitted activation curve with a large enough effect; inconclusive = small, poorly fitted or top-dose-only effect; inactive = no such curve, though single readings can be large or run the other way. This is one part of the list.

Each compound was assayed against Galactocerebrosidase (Homo sapiens) (UniProt P54803) (assay: A Novel Cell-Based Assay to Identify Small Molecules for B -Galactocerebrosidase). Settings: 145M-Twi-hGALC-G270D cells, HMU-beta-Gal fluorescence, 48 h; series mostly up to 57.5 µM; activation: at the top concentration.
Procedure, shortened: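 qHTS, 1536-well; 145M-Twi-hGALC-G270D cells (WT line also made) in DMEM/F12 + 10% FBS; compound incubation on live cells; HMU-β-gal 0.1 mM final, pH 5.2, NaTC; carbonate stop; fluorescence increase = enhanced residual activity.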
Also: 0% is about no effect; nearly all actives have a fitted effect of over 65% in size.

Sequence of UniProt P54803 (P54803 whole entry, looked up): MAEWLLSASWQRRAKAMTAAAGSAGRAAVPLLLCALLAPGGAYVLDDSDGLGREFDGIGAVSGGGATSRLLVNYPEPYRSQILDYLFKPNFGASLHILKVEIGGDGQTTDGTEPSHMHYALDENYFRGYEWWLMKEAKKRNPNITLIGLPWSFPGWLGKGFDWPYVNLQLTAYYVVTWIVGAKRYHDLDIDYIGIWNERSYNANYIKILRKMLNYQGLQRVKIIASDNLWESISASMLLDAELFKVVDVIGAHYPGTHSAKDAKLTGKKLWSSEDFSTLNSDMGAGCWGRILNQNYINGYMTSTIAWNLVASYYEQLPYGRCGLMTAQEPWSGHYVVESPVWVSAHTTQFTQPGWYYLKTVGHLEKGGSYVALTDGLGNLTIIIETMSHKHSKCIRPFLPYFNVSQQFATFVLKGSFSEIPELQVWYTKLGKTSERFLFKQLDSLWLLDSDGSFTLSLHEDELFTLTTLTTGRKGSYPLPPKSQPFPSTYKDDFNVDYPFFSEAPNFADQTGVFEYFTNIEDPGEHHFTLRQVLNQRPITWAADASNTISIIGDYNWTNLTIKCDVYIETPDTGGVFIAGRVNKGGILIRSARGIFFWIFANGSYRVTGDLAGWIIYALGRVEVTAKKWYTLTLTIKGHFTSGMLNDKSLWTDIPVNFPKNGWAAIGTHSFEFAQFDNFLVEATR

activation, inactive:
COc1ccc(CCN2C(=O)N(c3ccc(C)cc3)C(=O)C2CC(=O)Nc2ccc(OC)cc2)cc1 (configuration not stated) -17.5%
O=C(NCc1cccc(Cl)c1)c1ccc2c(Cl)c3c(nc2c1)CCCC3 -9.03%
Cc1cccc2c(=O)cc(CSc3ccccc3NC(=O)c3cccc(Br)c3)[nH]c12 -14.1%
CCc1ccc(S(=O)(=O)Nc2cccc(-c3ccc(OC)nn3)c2)s1 -5.1%
COc1ccc(NC(=O)CSc2nc3nc(C)cc(C)n3n2)cc1OC -18.6%
O=C(Nc1cccc(F)c1)C1CCN(S(=O)(=O)c2ccc3[nH]c4c(c3c2)CCCCC4)CC1 -11.8%
COc1cc(O)ccc1-c1nc2cc(C)ccn2c1Nc1ccccc1C -14.2%
O=C(CSc1ncc(CO)n1Cc1ccc(F)cc1)NCc1ccco1 0.431%
COc1cc(C(=O)NCC(c2ccc3c(c2)OCO3)N2CCN(C)CC2)cc(OC)c1OC (configuration not stated) -19.4%
COc1cccc2c1cc1c(=O)n(CC(=O)NCc3ccc(N(C)C)cc3)nc(C)n12 -6.57%
CC(C)c1ccc2oc(-c3cc(NC(=O)c4cccnc4)ccc3Cl)nc2c1 -1.79%
Cc1ccc(N2CC(C(=O)NCc3nnnn3-c3ccc(C)c(C)c3)CC2=O)cc1C (configuration not stated) -14.7%
O=c1n(Cc2ccc(Cl)cc2)nc2n1-c1ccccc1OC2 -12.3%
CCC1CCCCN1CCCNC(=O)c1c(C)oc2ncn(CC(C)C)c(=O)c12 (configuration not stated) -4.14%
COc1cccc(NC(=O)c2sc3nc(C)c(C(=O)Nc4ccc(C)cc4C)c(-c4ccc(C)o4)c3c2N)c1 -9.49%
COC(=O)C1=C(C)NC(C)=C(C(=O)OCC(C)=O)C1c1ccccc1[N+](=O)[O-] (configuration not stated) -2.08%
CCOc1ccccc1NC(=O)NCc1noc2ccc(C)cc12 -16%
COC(=O)c1ccccc1NC(=O)CCC(=O)N1CC(C)Sc2ccccc21 (configuration not stated) -2.96%
COC(=O)C(NC(=O)CCc1c(C)nc2cc(-c3cccc(F)c3)nn2c1C)C(C)C (configuration not stated) -12.4%
Cc1ccc2c(=O)cc(C(=O)Nc3ccc(S(=O)(=O)N4CCCCC4)cc3)oc2c1 -19.1%
COc1cccc(N2CCN(C(=O)c3cc4c(=O)n(Cc5cccnc5)ccc4nc3C)CC2)c1 -5.71%
COc1ccc(NC(=O)Cn2c(SCc3ccc(F)cc3)nc3cccnc32)c(OC)c1 -9.7%
CCOc1ccc(C(=O)Nc2nc(-c3ccc(Br)cc3)ns2)cc1 -10.8%
CC1CCn2c(nc3cc(C(=O)NCCc4ccccc4)ccc32)C1 (configuration not stated) -27.3%
Cc1ccc(NC(=O)CSc2cn(CC(=O)N3CCOCC3)c3ccccc23)cc1Cl -3.51%
COc1ccc(NC(=O)C2CCCN(c3cnccn3)C2)c(OC)c1 (configuration not stated) 0.179%
CCC(Cc1ccccc1)NC(=O)CCS(=O)(=O)c1cc2c(cc1Cl)NC(=O)CO2 (configuration not stated) -17.1%
